Laboratory results taken from the supplement of paper PMC8183993.
Where “and” joins values, the source holds several entries; their conditions need not be identical. Equal entries are not always repeated. Structures can show the parent of a compound that is named as a salt. ± gives the standard deviation of the averaged measurements. In all, about 3,200 compounds were measured (“nuclei count (viability) relative to DMSO”: median about 99, lowest 2% from about 16 on). The list shows a part of the results.

System: U2OS
Experiment: nuclei count (viability) relative to DMSO (% of DMSO); higher = more viable cells
Settings: 10 µM; 24 h
Description: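 Primary image-based screen in U2OS cells: compounds at 10 uM for 24 h, then a 1 h o-propargyl-puromycin (OPP) pulse, click labelling, and high-throughput microscopy. Mean cytoplasmic OPP intensity and nuclei count were normalised to DMSO wells within each plate (DMSO = 100) and averaged over triplicate plates.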

Row | Compound | nuclei count
1 | CC(C)=CCC/C(C)=C/CC/C(C)=C/CO [Farnesol] | 103
2 | CCN(CC)CCOC(=O)C(Cc1cccc2ccccc12)CC1CCCO1 (configuration not stated) [Nafronyl oxalate] | 101
3 | CC(C)NCC(O)COc1ccc(COCCOC(C)C)cc1 (racemic) [(±)-Bisoprolol hemifumarate] | 102
4 | CC(C)NCC(O)COc1ccc(COCCOC(C)C)cc1 (racemic) [Bisoprolol fumarate] | 95.5
5 | NC(=O)N1C(=O)/C(=C(\O)c2cccs2)c2cc(Cl)ccc21 [Tenidap] | 85.7
6 | COc1ccc(-c2nc(-c3ccc(-c4cccc(Cl)c4)o3)[nH]c2-c2ccc(OC)cc2)cc1 [Neurodazine] | 102
7 | CC1(C)S[C@@H]2[C@H](NC(=O)C(C(=O)O)c3ccccc3)C(=O)N2[C@H]1C(=O)O (some centres not stated) [Carbenicillin disodium] | 99
8 | C[C@H](N)[C@H](O)c1cccc(O)c1 [Metaraminol bitartrate] | 86.1
9 | CCOC(=O)n1ccn(C)c1=S [Carbimazole] | 108
10 | CC(C)[C@H]1c2ccc(F)cc2CC[C@@]1(CCN(C)CCCc1nc2ccccc2[nH]1)OC(=O)C1CC1 [NNC 55-0396 dihydrochloride] | 10.5
11 | COc1cc(O)c2c(c1)C(=O)c1cc(C)cc(O)c1C2=O [Rheochrysidin (Physcione)] | 108
12 | COc1cc(N2CCC(N)CC2)ccc1Nc1ncc(Cl)c(-c2c[nH]c3ccccc23)n1 | 7.03
13 | Nc1[nH]nc2nnc(-c3c(-c4ccccc4)nn4ccccc34)cc12 | 76.6
14 | O=C1CN(/N=C/c2ccc(-c3ccc([N+](=O)[O-])cc3)o2)C(=O)N1 [Dantrolene] | 107
15 | O=C1CN(/N=C/c2ccc(-c3ccc([N+](=O)[O-])cc3)o2)C(=O)N1 [Dantrolene sodium salt] | 106
16 | O=C1CN(/N=C/c2ccc(-c3ccc([N+](=O)[O-])cc3)o2)C(=O)N1 [Dantrolene, sodium salt] | 96.8
17 | O=C1Nc2ccc([N+](=O)[O-])cc2C1=O [5-Nitroisatin] | 99
18 | Cc1cc(NS(=O)(=O)c2ccc(N)cc2)no1 [Sulfamethoxazole] | 103
19 | CN[C@@H]1[C@@H](O)[C@@H](O[C@@H]2[C@@H](O)[C@H](O[C@H]3OC(CN)=CC[C@H]3N)[C@@H](N)C[C@H]2N)OC[C@]1(C)O [Sisomicin sulfate] | 101
20 | CC1(C)S[C@@H]2[C@H](NC(=O)[C@H](C(=O)O)c3ccsc3)C(=O)N2[C@H]1C(=O)O [Ticarcillin sodium] | 108
21 | CC(C)n1nnc2cc(C(=O)O)ccc21 | 104
22 | COC(=O)c1c(C)[nH]c(C)c1C(=O)c1ccccc1Cc1ccccc1 | 95.1 and 97.3
23 | COc1ccc(/C=C\c2cc(OC)c(OC)c(OC)c2)cc1O [Combretastatin A4] | 19.9
24 | CCCC1O[C@@H]2C[C@H]3[C@@H]4CCC5=CC(=O)C=C[C@]5(C)[C@H]4[C@@H](O)C[C@]3(C)[C@]2(C(=O)CO)O1 (some centres not stated) [Budesonide] | 105 ± 3.4

Row | Compound | nuclei count
25 | CCOC(=O)[C@H](CCc1ccccc1)N[C@H]1CCCN2CCC[C@@H](C(=O)O)N2C1=O [Cilazapril monohydrate (Inhibace)] | 96.7
26 | COc1cc(C(C)=O)ccc1OCCCN1CCC(c2noc3cc(F)ccc23)CC1 [Iloperidone (Fanapt)] | 104
27 | CC1=C(/C=C/C(C)=C/C=C/C(C)=C/C=C/C=C(C)/C=C/C=C(C)/C=C/C2=C(C)C(=O)CCC2(C)C)C(C)(C)CCC1=O [Canthaxanthin] | 105
28 | Cc1cc(C)c2c(c1)[C@@H](N(Cc1cc(C(F)(F)F)cc(C(F)(F)F)c1)c1nnn(C)n1)CCCN2C[C@H]1CC[C@H](C(=O)O)CC1 | 102
29 | CNC(=O)c1ccccc1Nc1nc(Nc2ccc(N3CCOCC3)cc2OC)ncc1Cl | 38.9 ± 1.6
30 | CC1=C(C(=O)Nc2cc3cn[nH]c3cc2F)C(c2ccc(C(F)(F)F)cc2)CC(=O)N1 (configuration not stated) | 87.7 ± 1.7
31 | CCOC(=O)c1ncn2c1CN(C)C(=O)c1cc(F)ccc1-2 [Flumazenil] | 95.1
32 | CC[C@H](NC(=O)c1c(C)c(-c2ccccc2)nc2ccccc12)c1ccccc1 | 105
33 | COc1cc(/C=C/c2ccc(O)cc2)cc(OC)c1 [Pterostilbene] | 80.5
34 | NCC(O)(CS(=O)(=O)O)c1ccc(Cl)cc1 (configuration not stated) [2-Hydroxysaclofen] | 102
35 | CC(C1=C(CCN(C)C)Cc2ccccc21)c1ccccn1 (stereo in doubt) [(S)-(+)-Dimethindene maleate] | 101
36 | O=C(O)Cc1ccc(OCCNC[C@H](O)c2ccccc2)cc1 [ZD 2079 hydrochloride] | 115
37 | CC(C(=O)O)c1cccc(C(=O)c2ccccc2)c1 (configuration not stated) [Ketoprofen] | 95.1
38 | COC(=O)N[C@H](C(=O)N1CCC[C@H]1c1ncc(-c2ccc(-c3ccc(-c4cnc([C@@H]5CCCN5C(=O)[C@@H](NC(=O)OC)C(C)C)[nH]4)cc3)cc2)[nH]1)C(C)C | 99.3
39 | C[C@H](NC[C@H](O)CP(=O)(O)CC1CCCCC1)c1ccc(Cl)c(Cl)c1 | 108
40 | O=S(=O)(c1ccccc1)N(CC(F)(F)F)c1ccc(C(O)(C(F)(F)F)C(F)(F)F)cc1 | 107
41 | C#C[C@]1(O)CC[C@H]2[C@@H]3CCc4cc(O)ccc4[C@H]3CC[C@@]21C [Ethinyl Estradiol] | 89.2
42 | C#C[C@]1(O)CC[C@H]2[C@@H]3CCc4cc(O)ccc4[C@H]3CC[C@@]21C [Ethinylestradiol] | 80.4
43 | CCCCN(CCCC)CCC(O)c1cc2c(Cl)cc(Cl)cc2c2cc(C(F)(F)F)ccc12 (configuration not stated) [Halofantrine hydrochloride] | 110
44 | COc1cc(F)c(F)c(Nc2ccc(I)cc2F)c1NS(=O)(=O)C1(C[C@H](O)CO)CC1 [Refametinib (RDEA119, Bay 86-9766)] | 90.6
45 | CCOc1cc(CC(=O)N[C@@H](CC(C)C)c2ccccc2N2CCCCC2)ccc1C(=O)O [Repaglinide] | 105 ± 2.7
46 | O=C(O)C(Cc1c[nH]c2ccccc12)N1C(=O)c2ccccc2C1=O (configuration not stated) | 96.7
47 | CCOC(=O)C1=C(C)NC(C)=C(C(=O)OCC)C1c1ccccc1/C=C/C(=O)OC(C)(C)C [Lacidipine] | 78.9
